Experimental data from the supplement of paper PMC12217912.
This is one part of the list. Sequences were assembled here from the parent chain. Values near 0.05 are background.

B1: TEV protease; numbered along this chain (parent)
chain: MGESLFKGPRDYNPISSSICHLTNESDGHTTSLYGIGFGPFIITNKHLFRRNNGTLVVQSLHGVFKVKDTTTLQQHLVDGRDMIIIRMPKDFPPFPQKLKFREPQREERICLVTTNFQTKSMSSMVSDTSCTFPSGDGIFWKHWIQTKDGQCGSPLVSTRDGFIVGIHSASNFTNTNNYFTSVPKNFMELLTNQEAQQWVSGWRLNADSVLWGGHKVFMVKPEEPFQPVKEATQL

Variants of: B1
Assay: raw area under fraction-flipped curve 0-4 h after induction (AUC4h, not background-subtracted), DNA-recorder readout of cleavage of the substrate (dimensionless); higher = more cleavage of the substrate by the protease variant
Details: temperature: 34 °C; time window: 0-4 h after rhamnose induction
Method: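 In vivo DNA recorder in E. coli TOP10(DE3) ΔrhaA at 34 °C. Each TEVp single-site mutant (parent TEVp 0) is paired with a single-site variant of the 7-mer TEVs (canonical ENLYFQ|S). The substrate sits between flexible linkers in a Bxb1-sfGFP-TEVs-SsrA fusion, so cleavage stabilises Bxb1 and speeds flipping of a recombination array, read by NGS. The value is the raw area under the fraction-flipped curve over 0-4 h after rhamnose induction (AUC4h), with ≥20 reads per time point. It is not background-subtracted; inactive controls average about 0.047.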
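Also: Bxb1 expression induced with 0.2% (w/v) L-rhamnose at OD600 near 0.5, cultures sampled hourly, flipped fraction per protease–substrate barcode pair counted by paired-end Illumina sequencing.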

Row | Variant | area with substrate ENLYFQA | area with substrate ENLYFQC | area with substrate ENLYFQI | area with substrate ENLYFQK | area with substrate ENLYFQM | area with substrate ENLYFQN | area with substrate ENLYFQP | area with substrate ENLYFQS | area with substrate ENLYFQT | area with substrate ENLYFQV | area with substrate ENLYFQW | area with substrate ENLYFQY | area with substrate ENLYFQF | area with substrate ENLYFQG | area with substrate ENLYFQH | area with substrate ENLYFQR | area with substrate ENLYFQD | area with substrate ENLYFQL | area with substrate ENLYFQQ | area with substrate ENLYFQE
1 | N172R | 0.0538 | 0.0563 | 0.0444 | 0.0535 | 0.0725 | 0.0568 | 0.0642 | 0.0626 | 0.0533 | 0.0716 | 0.0563 | 0.0703 |  |  |  |  |  |  |  | 
2 | V183G | 0.0629 | 0.0817 |  |  |  | 0.0599 |  | 0.0564 | 0.0316 |  |  | 0.037 | 0.0388 | 0.0331 | 0.0498 | 0.0518 |  |  |  | 
3 | K98V | 0.0786 | 0.111 | 0.0624 |  | 0.0868 |  |  | 0.113 |  |  | 0.0912 |  | 0.0815 |  | 0.0906 | 0.0611 | 0.0704 | 0.0587 |  | 
4 | I15G | 0.0734 | 0.0866 | 0.0588 |  | 0.061 |  | 0.0379 | 0.0716 | 0.0547 | 0.0649 | 0.0525 | 0.0407 |  | 0.156 | 0.0562 | 0.0691 | 0.0735 | 0.0553 |  | 
5 | F38V | 0.0546 | 0.0897 | 0.0577 |  |  |  |  | 0.0938 |  |  |  | 0.0542 |  |  | 0.0777 | 0.0286 |  | 0.0591 |  | 
6 | L99N | 0.0962 |  | 0.0644 |  |  |  | 0.0587 | 0.0882 |  | 0.0854 | 0.0569 |  |  | 0.0799 | 0.0724 | 0.0573 |  |  |  | 
7 | G2H | 0.134 |  |  | 0.0715 | 0.147 | 0.103 |  | 0.138 | 0.0831 |  |  |  |  | 0.112 |  | 0.0422 |  | 0.0648 |  | 
8 | G2F | 0.165 |  | 0.0576 | 0.0698 | 0.107 | 0.101 | 0.0534 | 0.143 |  |  | 0.0685 | 0.0855 | 0.0796 | 0.153 |  | 0.0614 | 0.0807 | 0.0674 |  | 
9 | A170Q | 0.0513 |  |  |  |  |  |  | 0.06 |  |  |  |  |  |  |  |  |  | 0.0404 |  | 
10 | A170R | 0.061 |  |  |  |  | 0.0612 |  | 0.0483 | 0.0616 |  |  | 0.0578 |  |  |  |  | 0.0492 | 0.0524 |  | 
11 | A170S | 0.0666 | 0.0706 |  | 0.0601 |  |  |  | 0.0613 | 0.0596 |  |  |  | 0.0697 |  |  |  |  |  |  | 
12 | G35V | 0.046 |  | 0.0442 | 0.0487 | 0.0558 |  |  | 0.0459 | 0.0796 |  | 0.0349 |  |  | 0.0486 |  |  |  |  |  | 
13 | T181V | 0.0728 | 0.0598 | 0.0869 |  | 0.0731 |  |  | 0.0838 | 0.0553 |  |  | 0.0667 | 0.0535 |  | 0.0528 |  | 0.0836 | 0.0587 |  | 
14 | T181H | 0.0543 | 0.0706 |  |  | 0.0423 |  |  | 0.0574 |  |  |  |  |  | 0.0585 |  | 0.0527 | 0.0283 | 0.0537 | 0.0489 | 
15 | T119S | 0.0885 | 0.111 |  |  |  | 0.0652 |  | 0.104 | 0.0604 |  |  |  |  |  |  | 0.0639 |  |  |  | 
16 | K66E | 0.103 |  | 0.0612 |  |  | 0.104 |  | 0.109 | 0.065 | 0.0391 | 0.0689 | 0.0999 |  | 0.0906 |  | 0.0733 | 0.0663 | 0.0552 |  | 
17 | K66Y | 0.0784 | 0.127 | 0.0587 |  | 0.0914 | 0.0795 | 0.0619 | 0.102 | 0.0605 |  |  | 0.0842 |  | 0.0997 |  |  | 0.0658 | 0.0567 |  | 0.0693

Row | Variant | area with substrate ENLYFQA | area with substrate ENLYFQC | area with substrate ENLYFQI | area with substrate ENLYFQK | area with substrate ENLYFQM | area with substrate ENLYFQN | area with substrate ENLYFQP | area with substrate ENLYFQS | area with substrate ENLYFQT | area with substrate ENLYFQV | area with substrate ENLYFQW | area with substrate ENLYFQY | area with substrate ENLYFQF | area with substrate ENLYFQG | area with substrate ENLYFQH | area with substrate ENLYFQR | area with substrate ENLYFQD | area with substrate ENLYFQL | area with substrate ENLYFQQ | area with substrate ENLYFQE
18 | F218V | 0.0904 | 0.0785 | 0.0373 | 0.17 | 0.0675 | 0.0681 |  | 0.097 | 0.0637 | 0.0484 | 0.0578 |  | 0.0538 |  | 0.064 |  | 0.0537 |  | 0.0632 | 
19 | G28Y | 0.0672 | 0.0819 | 0.0502 |  | 0.0651 | 0.0514 | 0.0465 | 0.0825 |  |  |  |  |  |  | 0.049 | 0.0558 |  | 0.0475 | 0.0474 | 
20 | H215S | 0.0598 |  |  |  |  |  |  | 0.0572 |  |  |  |  |  |  |  | 0.0439 |  |  |  | 
21 | K185N | 0.112 | 0.114 |  | 0.0794 | 0.0897 | 0.0677 |  | 0.111 | 0.059 | 0.0593 | 0.0575 | 0.114 | 0.0781 | 0.0867 |  | 0.057 |  |  | 0.0731 | 
22 | I110F | 0.0377 | 0.067 | 0.0546 | 0.0536 | 0.0584 | 0.0613 |  | 0.0578 | 0.0571 | 0.0661 | 0.104 | 0.0555 | 0.0443 |  | 0.071 | 0.0682 |  | 0.0463 |  | 
23 | V57I | 0.105 | 0.114 | 0.051 | 0.0693 |  |  |  | 0.106 |  |  | 0.071 | 0.0782 |  |  |  | 0.055 |  | 0.0476 |  | 
24 | V57E | 0.13 |  |  |  |  | 0.0696 |  | 0.102 |  |  |  | 0.0825 | 0.0767 | 0.11 |  | 0.0757 |  |  |  | 
25 | Q59N | 0.0707 | 0.0963 |  | 0.0715 |  |  | 0.067 | 0.0942 | 0.0682 | 0.0669 | 0.0645 | 0.0738 |  | 0.0289 |  | 0.0687 | 0.063 |  |  | 
26 | R50W | 0.105 |  |  |  | 0.104 | 0.0994 |  | 0.131 | 0.0729 |  | 0.0824 | 0.104 | 0.0971 |  | 0.108 | 0.07 |  |  |  | 
27 | G166E | 0.0526 |  |  | 0.0478 |  |  |  | 0.052 | 0.0501 | 0.0391 | 0.0506 |  |  | 0.0316 | 0.0544 |  |  | 0.0503 | 0.0527 | 0.0474
28 | Q227D | 0.148 | 0.119 | 0.0599 |  |  | 0.0946 | 0.0624 | 0.124 | 0.0562 | 0.066 | 0.0762 | 0.0532 |  | 0.132 | 0.103 | 0.056 | 0.0922 | 0.0654 | 0.0737 | 
29 | S135H | 0.0622 | 0.0632 | 0.0686 |  | 0.0493 | 0.0705 |  | 0.0663 |  |  |  | 0.0492 | 0.05 |  | 0.0666 |  | 0.064 | 0.0636 |  | 
30 | N206R | 0.101 | 0.0924 | 0.0561 | 0.0633 | 0.0725 | 0.0715 | 0.0801 | 0.0882 | 0.0609 |  |  |  | 0.0862 | 0.0801 |  | 0.0576 |  | 0.0775 |  | 
31 | S4A | 0.0996 | 0.138 | 0.0562 | 0.0642 |  |  |  | 0.112 | 0.0662 |  |  |  |  | 0.102 |  | 0.0566 |  | 0.0704 |  | 
32 | P155G | 0.0634 |  |  | 0.0583 | 0.0468 | 0.0494 |  | 0.0594 | 0.0495 |  | 0.0613 |  |  | 0.0545 | 0.0513 | 0.0408 |  | 0.0372 |  | 
33 | L5H | 0.0928 |  | 0.0618 |  | 0.0924 |  |  | 0.114 | 0.0581 |  |  |  |  | 0.0953 | 0.087 |  |  | 0.066 |  | 0.0993
